In the supplement of paper PMC10126150:
Values marked as one replicate rest on one cluster of the flow cell; about a third of the high ones do not repeat.

tested on: ATP; experiment: switch fluorescence ratio, 500 uM ATP over buffer (Cy3 cluster intensity, sum of 5 cycles each) (fold (ratio)); higher = stronger signal-on switching upon ATP binding; sequences stand for … in TCGTCGGCAGCGTCAGATGTGTATAAGAGACAGTTTTTTTTTTTTTTTTTTTTTTTTT…TC; settings: aptamer strand: ATP DNA aptamer (quencher-CACCTGGGGGAGTATTGCGGAGGAAGG + anchor), 100 nM annealed; ATP concentration: 500 uM; one replicate
Procedure, shortened: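 Cy3-labelled switching-strand clusters on a modified Illumina MiSeq flow-cell were annealed to 100 nM quencher-labelled ATP aptamer, imaged in selection buffer, then imaged after 15 min with 500 uM ATP at 22 °C. Five buffer/ATP cycles ran, with NaOH stripping and re-annealing between them. The fluorescence ratio is summed target-cycle over summed buffer-cycle Cy3 intensity per cluster, averaged per switch-domain sequence. Clusters outside 100-1000 RFU were excluded.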
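Note: ATP exposure 15 min at 22 °C before imaging.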

Sequence	switch fluorescence ratio
ATGGAATTGC	1.05
ACTACGGCAC	2.15
CCGAAGATTA	1.87
TGACAGATCA	1.01
GGGCTCACT	1
TCTTTATCAA	1.1
GGAAGCAGAT	1
TTACGGGAAA	1.01
CCTAGGGAGA	1.01
TGACCAGAGC	1.07
CTCGAAACGT	1.08
CAACAGCTAT	1.21
TCTTCCCGCT	1.89
ACCGCGCCAC	2.82
GGGGGACAAA	0.983
TCATTATCGC	0.992
ATGCTAACAA	0.989
CCCGGGTTGA	1.03
AGGGTGGACC	1.02
TAAGAGTGAA	1.03
TCGGTTAGTT	0.94
TCCTGATGTC	1.03
AGCCATTGG	1.07

Sequence	switch fluorescence ratio
GGGTCCTA	0.993
GGTCCATCGC	1.07
TAGCCCGTTC	0.999
GCTTTTAATG	0.996
TATAGGCGAT	0.994
CTGGGCTGTG	0.945
GTGTAACCGA	1.04
TTCTAGCTAG	0.981
ATTTAGGAAA	1
TACTTTTAGC	1.07
TGACCGGGCA	1.02
CTCGTGTGGT	0.978
ACTGGCCATC	0.999
CGGGTTGAA	0.998
GGTGCAAGGT	1.06
TTCTAAT	0.979
CCAAAACGCA	1.23
AGCCCTAGTT	1.13
TGTATGAGAG	1.01
GGTCTCTTGT	0.953
GCTGCCGTTA	1.03
GAAAAACCTA	0.988
TCTTAATTGC	1.02

Sequence	switch fluorescence ratio
GGCATCAATA	1.02
TAAAATATA	0.998
TGTCGGATAG	1.01
ATTGGGGTA	0.985
CAGACCCTAC	1.37
ACGCCATGCT	1.15
ACGTGTAAAG	0.994
TCTTGTTGCA	1.01
CAAAAGGTAT	1.01
AGCAAAAGTA	1.04
GGTCGGACAA	0.986
GACTCTGACT	0.986
TCTATCGCTT	1.12
CAATCGCTTT	1.05
TACCCGATGT	0.992
TTACCTGCTG	1.04
TAATGTCA	0.963
CTATCGAGCC	0.968
ACAGAGGACT	0.967
TTTAGCCCGT	0.943
CCAGCGGCTT	1.02
GTTTGACACG	1.04
CAGGATCGCC	1

Sequence	switch fluorescence ratio
ATGGAACAGA	1.12
ATTAATGCCT	1.08
TGGGCGTGAG	0.959
CTCCAGTTGG	0.989
TAGAGTTAT	0.963
TCTTATCCC	1.03
AGTTCTAATA	1
AGGCCGGGAG	1.05
ATCGCCGGCC	1.01
CCCAGAGTGG	1.73
CGATTGTTGG	1.01
ATGCCATGGT	0.991
GCTCCCCCGA	2.1
ATGATGACGT	1.01
CGTCGCTCTA	1.01
CTCGGTTGAG	1.17
GTGATGCGAG	0.956
TTTTGATAGC	0.996
GAGTGATTT	1.01
CGAGGTCGAT	0.979
GGAGATATAG	1.04
CTCCGGGGAT	4.11
CCTAGTGTAT	0.974

Sequence	switch fluorescence ratio
GATGGCACAG	1
ATAATAGTAG	1.04
GTTCCGGTTA	0.999
ATCAATGAG	0.972
ATAATGTTGG	1.02
TCCGAATGAG	1.12
ATTTATACTT	0.991
TTCTTAATTC	1.15
TGCCTAAAGC	0.952
AACGTGGACC	1.1
ACTGACTTTT	1.1
TTAGCCACT	0.997
CGCGTTAAGC	0.959
GGATTCTTTG	1.01
GGGACTTGGT	1.01
GGTTAGAGT	0.959
GGGTAGTACC	1.02
TAGGAATAAG	1.04
TCACGACGTT	1.01
CTATTTAGGA	0.982
CGGTACTGCG	1.05
AACGGGAGTA	0.999
CACGAAATGT	1.11

Sequence	switch fluorescence ratio
GTTTTTGTTG	1.02
GTCAGCATGA	0.974
CGACGATCAT	1.08
TTCAGAATG	1.04
GGTATAAGTT	0.982
AGCAGCGAGG	0.99
GTCGTTATAG	1.02
CGTTAAATAC	1.96
CGCCGAGGTT	1.02
CTAGTTGATC	1.09
TCCGCAGTGT	1.19
TTGCGGGATA	4.1
CAATAAGCCG	1
TTTTAAAACC	1.03
ACTGCCTGCA	1.09
TAAGTATTTC	1.03
CGTTGTTGAG	0.998
CCGTGGAGTT	1.09
CAGCATGAAT	1.02
CTTACCCCTT	1.06
TCAACGCTTT	1.05
GACTCAAGTA	1.04
ACAGGGGTGA	1.08

Sequence	switch fluorescence ratio
ATCAACACGA	1.02
GCGGAATCAG	0.999
GATCTCGT	0.975
TCTTCATGGG	0.997
TTATCCGCGC	2.84
AGACAGTTCT	0.983
TGGTAGATCT	0.966
ACCAAGATGA	0.994
GTGGACGTGT	0.944
TGAGATGAGC	0.994
GGGGGCTCGT	0.975
CTGGGAGAGA	1
CGGCACTCGT	0.985
GGCGCACGAG	0.998
GACCCCACCC	1.24
TAGGGGCCCC	1.01
ACAGGCCGGT	1.04
CGGTTTAGTG	0.955
GTGAAAGCAG	1.01
